Test results from PubChem BioAssay AID1508624 (National Center for Advancing Translational Sciences (NCATS), 2021).
Screen size: about 48,000 compounds; about 120 (0.25%) were called active. Roughly 4% stayed inconclusive and do not appear here. Calls follow the shape of the dose curve; as a rule, active = well fitted activation curve with a large enough effect; inconclusive = small, poorly fitted or top-dose-only effect, or another doubt; inactive = no such curve, though single readings can be large or run the other way. This is one part of the list.

experiment: Primary qHTS for Identification of Small Molecule Activators of Huntingtin-Antisense Promoter Activity; conditions: HEK293 HTT-AS promoter firefly luciferase reporter, 24 h; series mostly up to 57.5 µM; activity change, positive = activation: at the top concentration; also: nearly all actives have a fitted effect of over 55% in size
How it was run: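 Firefly luciferase readout (Dual-Glo, 10 min RT) after 24 h, 37 °C compound exposure (final up to 57.5 uM) of HEK293 reporter cells cultured 24 h beforehand; PTC124 at 50 uM final as control inhibitor; activity scaled vehicle 0%, zero RLU -100%.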

Activity change, positive = activation, inactive:
CCc1ccc(-n2nc(C)c3c(C(=O)Nc4ccc(Cl)cc4)cc(C)nc32)cc1 5.33%
CN1CC(=O)N2[C@H](c3ccc4c(c3)OCO4)c3[nH]c4ccccc4c3C[C@@H]2C1=O -2.19%
Cc1ccc(C)c(-c2ccc(=O)n(C(C)C(=O)Nc3ccccc3C(F)(F)F)n2)c1 (configuration not stated) -27.2%
CCCCNC(=O)CSc1nc(-c2ccc(OC)cc2)cc(C(F)(F)F)n1 -8.23%
O=C(NC1CC(=O)N(c2cccc(F)c2)C1)c1ccc(S(=O)(=O)N2CCCCC2)cc1 (configuration not stated) -13.7%
Cc1ccc(OCC(=O)Nc2nnc(SCc3cc(=O)n4cc(C)ccc4n3)s2)cc1 -12.4%
COC(=O)c1ccccc1NC(=O)CCn1c(=O)c2cccn2c2cccnc21 -10.2%
COc1ccc(C(=O)Nc2cc(-c3nc4ncccc4o3)ccc2C)cc1Br -22.3%
O=c1c2sc3ccccc3c2n(Cc2ccccc2F)c(=O)n1-c1ccccc1Cl -12.2%
COc1cccc(CNC(=O)CSc2nc3ccccc3nc2Cc2ccccc2)c1 -16.3%
CCN(CC)S(=O)(=O)c1ccc2nc(NC(=O)c3ccccc3OC)sc2c1 -31.3%
Cc1nnc(N2CCC(C(=O)NCc3ccc(F)cc3)CC2)c2nn(-c3ccc(Cl)cc3)c(C)c12 -39.5%
Cc1ccc2c(c1)cc(C(=O)NCc1ccc(F)cc1)n2C 2.1%
COc1ccccc1N1CCN(c2ccc(=O)n(CC(=O)O)n2)CC1 -7.33%
CCOCC(=O)Nc1ccc(-c2cn3c(C)csc3n2)cc1 -80.2%
CCCCOc1ccc(C(=O)NCCS(=O)(=O)N2CCN(c3ccccc3OC)CC2)cc1 -46.1%
CC(C)NCC(O)COc1ccc(CCOCC2CC2)cc1 (configuration not stated)
CN(C)c1ccc(C(CNC(=O)c2ccccc2Cl)N2CCc3ccccc32)cc1 (configuration not stated) -2.36%
O=C(COc1ccc(Cl)cc1)Nc1ccc(O)c(-c2nc3ccccc3s2)c1 -1.57%
Cc1ccc(Cn2c(C(=O)O)c(CNCCc3cccs3)c3ccc(C)cc32)cc1 -15.3%
O=C(NC1CC(=O)N(c2ccc(F)cc2)C1)c1ccc(S(=O)(=O)N2CCCC2)cc1 (configuration not stated) -23.1%
CCN(C(=O)CSc1nc2ccccc2nc1Cc1cccc(OC)c1)c1cccc(C)c1 -34.4%
Cc1ccc(NC(=O)Nc2nc3c(s2)CCCCCC3)cc1C 23.3%
Cc1cc(Br)ccc1NC(=O)COc1cc(=O)n(C)c2ccccc12 -22%
COc1ccccc1NC(=O)c1ccc2[nH]c(C)cc(=O)c2c1 0.0203%
c1ccc2sc(SN3CCOCC3)nc2c1 6.64%
Cc1cc2ccccc2n1CCNC(=O)c1ccccc1F -8.42%
O=c1c2sc3ccccc3c2n(Cc2ccc(F)cc2)c(=O)n1Cc1ccco1 -14.8%
CC(=O)Nc1ccc(OC(=O)c2ccccc2OC(C)=O)cc1 -15.6%
CC(C)c1ccc(S(=O)(=O)c2nnn3c2nc(NCc2cccs2)c2sccc23)cc1 -9.38%
O=C(NCC(c1ccc2c(c1)OCO2)N1CCN(c2ccccc2)CC1)C(=O)Nc1ccccc1 (configuration not stated) 3.45%
COc1ccc(C(=O)Nc2ccccc2)cc1S(=O)(=O)Nc1ccc(Br)cc1 -17.9%
O=C(OCc1cc(=O)n2nc(C3CC3)sc2n1)c1ccc(NC(=O)c2ccccc2Cl)cc1 -35%
CCc1ccc2oc(C(=O)Nc3cc(Cl)ccc3OC)cc(=O)c2c1 9.34% [at 11.5 µM, percent change from vehicle, -100% = no light]
Cc1c(C(=O)Nc2ccccc2)sc2nc(-c3cc4ccccc4oc3=O)[nH]c(=O)c12 2.15%
O=C(Nc1ccc2nc(SCC(=O)N3CCCc4ccccc43)sc2c1)c1ccccc1F -21.9%
Fc1ccc(Nc2nc(-c3cccc(Cl)c3)c3c(n2)-c2ccccc2OC3)cc1 -8.39%
CC(=O)[C@@]1(O)CC[C@H]2[C@@H]3C[C@H](C)C4=CC(=O)C=C[C@]4(C)[C@@]3(F)[C@@H](O)C[C@@]21C -0.74%
COc1cccc(CNc2ncnc3c2nnn3C)c1 -5.34%
CNC(=O)C1CCC(Cn2c(=O)c3sccc3n(CC(=O)N3CCCC3)c2=O)CC1 (configuration not stated) -16.7%
COc1cccc(C2CC(=O)Nc3c2c(=O)[nH]c2ncnn32)c1OC (configuration not stated) -0.13%
Cc1cccc2cc(CN(C(=O)c3cccc(Cl)c3)c3ccccc3)c(=O)[nH]c12 -25.2%
CCc1nc(N)nc(N)c1-c1ccc(Cl)cc1
CCOc1ccc(C2C(C(N)=O)=C(C)Nc3nc(-c4ccc(OC)cc4)nn32)cc1 (configuration not stated) -1.96%
COc1ccccc1Nc1nn2c(=O)c3ccc(C(=O)NC4CCC(C)CC4)cc3nc2s1 (configuration not stated) -4.69%
COc1ccccc1C(=O)Nc1cccc(OCc2cc(=O)n3c4c(sc3n2)CCCC4)c1 0.0485%
O=C(C1CCN(S(=O)(=O)c2ccc(Br)s2)CC1)N1CCN(c2ccc(F)cc2)CC1 -30.8%
O=C(Cn1c2ncccc2c(=O)n1-c1ccccc1)Nc1ccc(Cl)cc1C(F)(F)F -6.26%
COCc1cc(C)nc2sc3c(c12)NC(c1ccc(O)cc1)N(c1ccc(C)cc1)C3=O (configuration not stated) -21.1%
O=C(OCc1cccc(C(F)(F)F)c1)c1ccc(-c2nnn(Cc3ccc(F)cc3)n2)cc1 -10.1%
Cc1nn(C(=O)c2ccccc2)c(C)c1S(=O)(=O)N1CCCCCC1 -17.8%
CCN(C(=O)c1cn(-c2ccc(OC)cc2)c(=O)c2ccccc12)c1cccc(Cl)c1 -34.3%
CCn1c(=N)c(C(=O)NC2CCCC2)cc2c(=O)n3ccccc3nc21 -4.17%
CC(C)N1CCc2nc(SCC(=O)Nc3cccc(F)c3)[nH]c(=O)c2C1 12.9%
COc1ccc(-c2nc3scc(CCNC(=O)c4cc(OC)cc(OC)c4)n3n2)cc1 -20.2%
CCOc1ccc(C(=O)OCc2cc(=O)n3cc(C)sc3n2)cc1 -2.29%
CCCCCn1cc2c(c1-c1ccc(Cl)cc1)c(=O)n(C)c(=O)n2C -16.9%
COc1ccc2c(c1)C=C(C(=O)NCc1cc(Br)ccc1OC)CO2 -20%
Cc1cccc(C(=O)Nc2ccc3oc(-c4ccncc4)nc3c2)c1 -19.1%
COc1ccccc1NC(=O)c1sc2ncn(Cc3ccccc3Cl)c(=O)c2c1C -8.38%
CCOC(=O)C1CCCN(S(=O)(=O)c2ccc3[nH]c(=O)oc3c2)C1 (configuration not stated) -19.4%
CCc1ccccc1NC(=O)c1sc(-n2nc(C)c(Cc3ccc4c(c3)OCO4)c2C)nc1C -5.3%
CCOc1ccc(CNC(=O)C2CCN(S(=O)(=O)c3cn(C)cn3)CC2)cc1OC -7.15%
COc1cccc(CN2C(=O)CN(C3CCCCC3)C(=O)C2c2ccc(OC)c(OC)c2)c1 (configuration not stated) -18.5%
COc1ccc2c(c1)c1c(c(=O)n(-c3ccccc3C)c(=O)n1CC(=O)N1CCCC1)n2C -16.8%
COc1ccc(C2C=C(c3ccccc3)Nc3nc(NC(=O)/C=C/c4ccc(F)cc4)nn32)cc1 (configuration not stated) -17.3%
CCC(C)Sc1c(C(C)C)cnc2c1c(=O)n(C)c(=O)n2C (configuration not stated) -36.7%
COc1ccc(-c2cc(C(F)(F)F)c(C#N)c(SCC(=O)Nc3ccccc3F)n2)cc1 -8.06%
COc1ccc(-n2c(/C=C/c3c(C)[nH]c4ccccc34)nc3ccccc3c2=O)cc1 -11.8%
COc1cccc(CNc2nccn(-c3ccc(OC)c(OC)c3)c2=O)c1 -1.98%
Cc1nn(C)c2c1c(-c1ccccc1)cc(=O)n2Cc1ccc(Cl)cc1 -25.1%
COc1ccccc1C(=O)Nc1ccc(OCc2cc(=O)n3ccc(C)cc3n2)cc1 -1.11%
COc1ccc(CNC(=O)c2cnn(-c3ccc(C)cc3)c2-n2cccc2)cc1OC -37.4%
O=C(CSc1ncc(CO)n1Cc1ccc(Cl)cc1)NCc1ccc(F)cc1 -29.7%
COc1ccc(C(=O)Oc2cc(-c3ccc4c(c3)OCO4)cc(=O)c3c(C)oc(C)c23)cc1 -10.7%
Cc1cccc(NC(=O)CSc2nc(=O)n(Cc3ccccn3)c3c2CCC3)c1C -22.7%
COc1ccc(CNC(=O)c2cc3cccc4c3n2CC(C)S4)c(OC)c1 (configuration not stated) -44.3%
Cc1ccc(Cl)cc1NC(=O)CSc1nc2c(c(=O)[nH]1)CN(Cc1ccccc1)CC2 -9.97%
COc1ccc(S(=O)(=O)N2CCN(CC(=O)Nc3ccc(Cl)c(C(F)(F)F)c3)CC2)cc1 -37.6%
COC(=O)c1cc2oc(C)cc2n1CC(=O)Nc1cc(Cl)ccc1OC 3.26%
CCOC(=O)c1ccc(NC(=O)CCc2c(C)nc3c(-c4ccc(F)cc4)c(C)nn3c2C)cc1 -12.8%
Cc1ccc(-c2onc(C)c2C)cc1S(=O)(=O)Nc1ccc(Cl)cn1 -11.4%
Cc1ccccc1C(=O)Nc1ccc(C(=O)OCc2cc(=O)n3nc(C(C)C)sc3n2)cc1 4.38%
COc1ccc(NC(=O)C2Cc3ccccc3N2C(=O)c2ccccc2)cc1OC (configuration not stated) -26.1%
CCOc1ccc(NC(=O)N(C(C)C)C2CCN(C(C)=O)CC2)cc1 -0.404%
COC(=O)c1cccc(Nc2nn3c(=O)c4cc5c(cc4nc3s2)OCO5)c1 -5.76%
COc1ccc(-c2[nH]c3ccccc3c2SCCNC(=O)c2ccc(S(=O)(=O)N(C)C)cc2)cc1 -27.5%
COc1ccc(S(=O)(=O)NCC(c2ccc(N(C)C)cc2)N2CCOCC2)cc1 (configuration not stated) -11.5%
Cc1ccc2[nH]c3c(=O)n(CC(=O)NC(C)C)ncc3c2c1 -11%
COC(=O)Nc1nc2ccc(Sc3ccccc3)cc2[nH]1
COc1ccc(CNC(=O)CSc2ncc(S(=O)(=O)c3ccc(Br)cc3)c(=O)[nH]2)cc1 -15%
CCNc1oc(-c2ccc(COc3ccc(Cl)cc3)o2)nc1C#N -34%
CCCCOc1ccc(CNC(=O)Cc2ccc(NC(=O)N3CCSc4ncccc43)cc2)cc1 -30.7%
O=C(CSC1=Nc2ccccc2N=C(c2ccc(F)cc2)C1)NCc1ccccc1Cl -31.9%
Cc1nn(-c2ccc(N3CCOCC3)nn2)c(C)c1CCC(=O)NCc1ccccc1F -11.8%
O=C(O)c1cn(C2CC2)c2cc(N3CCNCC3)c(F)cc2c1=O
CCOc1ccc(CNC(=O)c2sc3ncnc(N(C)C4CCCCC4)c3c2C)cc1 -10.6%
